Experimental data from PMC8810914 (Biochemistry, 2021).

Tested on: A/Soloman Island/3/2006 (H1N1)
Conditions: read-out: EC50, inhibition of viral replication

**Q.** `C[C@@H](N)C12CC3CC(CC(C3)C1)C2` [(R)-rimantadine] was tested. Which EC50 did it give?
**A.** 19.6 nM

**Q.** For `C[C@H](N)C12CC3CC(CC(C3)C1)C2` [(S)-rimantadine], which EC50 is on record?
**A.** 24.4 nM
